Measurements published in the supplement of paper PMC4967469.
By IC50 is meant the dose at which the fit gives 50% viability; where the fit passes the top or lowest dose, that dose stands as a limit. The AUC spans the tested range (256-fold, ending at the top dose) of the same fit; the more sensitive the line, the further below 1. Where the top dose is marked as inferred, it is not printed in the source and was worked back from the curve model.

Compound: C=CC(=O)Nc1cccc(Nc2nc(NC3CCC(N(C)C)CC3)nc3c2ncn3C(C)C)c1 [WZ3105]
Test: Viability of human cancer cell lines after 72 h of drug (GDSC screen)
Conditions: top dose inferred
Description: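 Human cancer cell lines in 384-well plates, medium with 10% serum, drug for 72 h over a 256-fold dose range (nine 2-fold or five 4-fold steps up to the top dose). Adherent lines were fixed and stained with the nucleic acid dye Syto60, suspension lines read with resazurin; signal relative to control wells, capped at 0 and 100%. One two-parameter sigmoid per drug and line, fitted in a mixed model over all curves with the slope shared within a line.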

## NCI-H650 (lung adenocarcinoma, adherent, top dose 1.28 µM)
  AUC: 0.8
  IC50: 695 nM

## NCI-H661 (large cell lung carcinoma, adherent, top dose 1.28 µM)
  AUC: 0.784
  IC50: 667 nM

## NCI-H716 (large intestine, suspension, top dose 10.24 µM)
  AUC: 0.804
  IC50: 6780 nM

## NCI-H720 (lung carcinoid, suspension, top dose 1.28 µM)
  AUC: 0.977
  IC50: > 1280 nM

## NCI-H727 (lung carcinoid, adherent, top dose 1.28 µM)
  AUC: 0.916
  IC50: > 1280 nM

## NCI-H747 (large intestine, adherent, top dose 10.24 µM)
  AUC: 0.163
  IC50: 45 nM

## NCI-H748 (small cell lung carcinoma, suspension, top dose 1.28 µM)
  AUC: 0.435
  IC50: 50.5 nM

## NCI-H810 (large cell lung carcinoma, adherent, top dose 1.28 µM)
  AUC: 0.683
  IC50: 254 nM

## NCI-H838 (lung adenocarcinoma, adherent, top dose 1.28 µM)
  AUC: 0.854
  IC50: 1080 nM

## NCI-H841 (small cell lung carcinoma, adherent, top dose 1.28 µM)
  AUC: 0.741
  IC50: 394 nM

## NCI-H847 (small cell lung carcinoma, adherent, top dose 1.28 µM)
  AUC: 0.566
  IC50: 117 nM

## NCI-H1048 (small cell lung carcinoma, adherent, top dose 1.28 µM)
  AUC: 0.691
  IC50: 258 nM

## NCI-H1092 (small cell lung carcinoma, suspension, top dose 1.28 µM)
  AUC: 0.783
  IC50: 545 nM

## NCI-H1155 (large cell lung carcinoma, suspension, top dose 1.28 µM)
  AUC: 0.993
  IC50: > 1280 nM

## NCI-H1299 (large cell lung carcinoma, adherent, top dose 1.28 µM)
  AUC: 0.918
  IC50: > 1280 nM

## NCI-H1304 (small cell lung carcinoma, suspension, top dose 1.28 µM)
  AUC: 0.845
  IC50: 1040 nM

## NCI-H1355 (lung adenocarcinoma, adherent, top dose 1.28 µM)
  AUC: 0.94
  IC50: > 1280 nM

## NCI-H1395 (lung adenocarcinoma, adherent, top dose 1.28 µM)
  AUC: 0.68
  IC50: 304 nM

## NCI-H1417 (small cell lung carcinoma, suspension, top dose 1.28 µM)
  AUC: 0.643
  IC50: 215 nM

## NCI-H1435 (lung adenocarcinoma, semi-adherent, top dose 1.28 µM)
  AUC: 0.992
  IC50: > 1280 nM

## NCI-H1436 (small cell lung carcinoma, suspension, top dose 1.28 µM)
  AUC: 0.849
  IC50: 1170 nM

## NCI-H1437 (lung adenocarcinoma, adherent, top dose 1.28 µM)
  AUC: 0.767
  IC50: 494 nM

## NCI-H1563 (lung adenocarcinoma, adherent, top dose 1.28 µM)
  AUC: 0.789
  IC50: 687 nM

## NCI-H1568 (lung adenocarcinoma, adherent, top dose 1.28 µM)
  AUC: 0.765
  IC50: 581 nM

## NCI-H1573 (lung adenocarcinoma, adherent, top dose 1.28 µM)
  AUC: 0.979
  IC50: > 1280 nM

## NCI-H1581 (large cell lung carcinoma, semi-adherent, top dose 1.28 µM)
  AUC: 0.71
  IC50: 296 nM

## NCI-H1623 (lung adenocarcinoma, adherent, top dose 1.28 µM)
  AUC: 0.95
  IC50: > 1280 nM

## NCI-H1648 (lung adenocarcinoma, adherent, top dose 10.24 µM)
  AUC: 0.41
  IC50: 356 nM

## NCI-H1651 (lung adenocarcinoma, adherent, top dose 1.28 µM)
  AUC: 0.981
  IC50: > 1280 nM

## NCI-H1666 (lung adenocarcinoma, semi-adherent, top dose 10.24 µM)
  AUC: 0.617
  IC50: 1390 nM

## NCI-H1688 (small cell lung carcinoma, adherent, top dose 1.28 µM)
  AUC: 0.851
  IC50: 1140 nM

## NCI-H1693 (lung adenocarcinoma, adherent, top dose 10.24 µM)
  AUC: 0.821
  IC50: > 10200 nM

## NCI-H1694 (small cell lung carcinoma, suspension, top dose 1.28 µM)
  AUC: 0.759
  IC50: 443 nM

## NCI-H1703 (lung adenocarcinoma, adherent, top dose 1.28 µM)
  AUC: 0.697
  IC50: 327 nM

## NCI-H1734 (lung adenocarcinoma, adherent, top dose 10.24 µM)
  AUC: 0.689
  IC50: 2290 nM

## NCI-H1755 (lung adenocarcinoma, adherent, top dose 1.28 µM)
  AUC: 0.9
  IC50: > 1280 nM

## NCI-H1770 (non-small cell lung carcinoma, suspension, top dose 1.28 µM)
  AUC: 0.97
  IC50: > 1280 nM

## NCI-H1781 (lung adenocarcinoma, adherent, top dose 1.28 µM)
  AUC: 0.944
  IC50: > 1280 nM

## NCI-H1792 (lung adenocarcinoma, adherent, top dose 1.28 µM)
  AUC: 0.976
  IC50: > 1280 nM

## NCI-H1793 (lung adenocarcinoma, adherent, top dose 1.28 µM)
  AUC: 0.962
  IC50: > 1280 nM

## NCI-H1836 (small cell lung carcinoma, suspension, top dose 1.28 µM)
  AUC: 0.654
  IC50: 224 nM

## NCI-H1838 (lung adenocarcinoma, adherent, top dose 1.28 µM)
  AUC: 0.924
  IC50: > 1280 nM

## NCI-H1869 (lung squamous cell carcinoma, adherent, top dose 1.28 µM)
  AUC: 0.944
  IC50: > 1280 nM

## NCI-H1876 (small cell lung carcinoma, adherent, top dose 1.28 µM)
  AUC: 0.688
  IC50: 271 nM

## NCI-H1915 (large cell lung carcinoma, adherent, top dose 1.28 µM)
  AUC: 0.677
  IC50: 253 nM

## NCI-H1944 (lung adenocarcinoma, adherent, top dose 1.28 µM)
  AUC: 0.609
  IC50: 163 nM

## NCI-H1975 (lung adenocarcinoma, adherent, top dose 10.24 µM)
  AUC: 0.604
  IC50: 1290 nM

## NCI-H1993 (lung adenocarcinoma, adherent, top dose 1.28 µM)
  AUC: 0.616
  IC50: 185 nM

## NCI-H2009 (lung adenocarcinoma, adherent, top dose 1.28 µM)
  AUC: 0.981
  IC50: > 1280 nM

## NCI-H2023 (lung adenocarcinoma, adherent, top dose 1.28 µM)
  AUC: 0.965
  IC50: > 1280 nM

## NCI-H2029 (small cell lung carcinoma, adherent, top dose 1.28 µM)
  AUC: 0.848
  IC50: 814 nM

## NCI-H2030 (lung adenocarcinoma, adherent, top dose 1.28 µM)
  AUC: 0.744
  IC50: 449 nM

## NCI-H2052 (mesothelioma, adherent, top dose 1.28 µM)
  AUC: 0.95
  IC50: > 1280 nM

## NCI-H2081 (small cell lung carcinoma, suspension, top dose 1.28 µM)
  AUC: 0.874
  IC50: > 1280 nM

## NCI-H2085 (lung adenocarcinoma, adherent, top dose 1.28 µM)
  AUC: 0.849
  IC50: 1080 nM

## NCI-H2087 (lung adenocarcinoma, semi-adherent, top dose 10.24 µM)
  AUC: 0.445
  IC50: 448 nM

## NCI-H2110 (non-small cell lung carcinoma, adherent, top dose 1.28 µM)
  AUC: 0.78
  IC50: 540 nM

## NCI-H2122 (lung adenocarcinoma, adherent, top dose 10.24 µM)
  AUC: 0.852
  IC50: 7120 nM

## NCI-H2135 (non-small cell lung carcinoma, adherent, top dose 1.28 µM)
  AUC: 0.879
  IC50: 1240 nM

## NCI-H2141 (small cell lung carcinoma, suspension, top dose 1.28 µM)
  AUC: 0.817
  IC50: 691 nM

## NCI-H2170 (lung squamous cell carcinoma, adherent, top dose 1.28 µM)
  AUC: 0.907
  IC50: > 1280 nM

## NCI-H2171 (small cell lung carcinoma, suspension, top dose 1.28 µM)
  AUC: 0.718
  IC50: 300 nM

## NCI-H2172 (non-small cell lung carcinoma, adherent, top dose 1.28 µM)
  AUC: 0.979
  IC50: > 1280 nM

## NCI-H2196 (small cell lung carcinoma, adherent, top dose 1.28 µM)
  AUC: 0.74
  IC50: 407 nM

## NCI-H2227 (small cell lung carcinoma, semi-adherent, top dose 1.28 µM)
  AUC: 0.709
  IC50: 338 nM

## NCI-H2228 (lung adenocarcinoma, adherent, top dose 1.28 µM)
  AUC: 0.879
  IC50: > 1280 nM

## NCI-H2291 (lung adenocarcinoma, adherent, top dose 1.28 µM)
  AUC: 0.983
  IC50: > 1280 nM

## NCI-H2342 (lung adenocarcinoma, adherent, top dose 1.28 µM)
  AUC: 0.986
  IC50: > 1280 nM

## NCI-H2347 (lung adenocarcinoma, adherent, top dose 1.28 µM)
  AUC: 0.816
  IC50: 913 nM

## NCI-H2405 (lung adenocarcinoma, adherent, top dose 1.28 µM)
  AUC: 0.88
  IC50: > 1280 nM
